What all share (details): Electrophorus electricus
In series [1] the test system is COc1cc2nc(NC(=O)CN3CCN(CCCN(C)C)CC3)sc2cc1OC. Briefly: Inhibition of electric eel AChE assessed as enzyme Km at 0.0288 uM preincubated for 15 mins followed by acetylthiocholine iodide substrate addition measured for 5 mins by Lineweaver-Burk plot analysis (reference value: 1.23 mM).
The test system is the same in series [2]. Briefly: Inhibition of electric eel AChE assessed as enzyme Km at 0.1152 uM preincubated for 15 mins followed by acetylthiocholine iodide substrate addition measured for 5 mins by Lineweaver-Burk plot analysis (reference value: 1.23 mM).
For series [3] the test system is unchanged. Briefly: Inhibition of electric eel AChE assessed as enzyme Km at 0.0576 uM preincubated for 15 mins followed by acetylthiocholine iodide substrate addition measured for 5 mins by Lineweaver-Burk plot analysis (reference value: 1.23 mM).
The test system of series [4] is COc1cc2nc(NC(=O)CN3CCN(CCN(C)C)CC3)sc2cc1OC. Briefly: Inhibition of electric eel AChE assessed as enzyme Vmax at 0.0924 uM preincubated for 15 mins followed by acetylthiocholine iodide substrate addition measured for 5 mins by Lineweaver-Burk plot analysis (reference value: 0.60 abs/min).
Series [5] concerns COc1cc2nc(NC(=O)CN3CCN(CCCN(C)C)CC3)sc2cc1OC. Briefly: Inhibition of electric eel AChE assessed as enzyme Vmax at 0.0288 uM preincubated for 15 mins followed by acetylthiocholine iodide substrate addition measured for 5 mins by Lineweaver-Burk plot analysis (reference value: 0.60 abs/min).
Series [6] has as its system COc1cc2nc(NC(=O)CN3CCN(CCN(C)C)CC3)sc2cc1OC. Briefly: Inhibition of electric eel AChE assessed as enzyme Km at 0.0231 uM preincubated for 15 mins followed by acetylthiocholine iodide substrate addition measured for 5 mins by Lineweaver-Burk plot analysis (reference value: 1.23 mM).
The test system of series [7] is COc1cc2nc(NC(=O)CN3CCN(CCCN(C)C)CC3)sc2cc1OC. Briefly: Inhibition of electric eel AChE assessed as enzyme Vmax at 0.1152 uM preincubated for 15 mins followed by acetylthiocholine iodide substrate addition measured for 5 mins by Lineweaver-Burk plot analysis (reference value: 0.60 abs/min).
The subject of series [8] is COc1cc2nc(NC(=O)CN3CCN(CCN(C)C)CC3)sc2cc1OC. Briefly: Inhibition of electric eel AChE assessed as enzyme Km at 0.0924 uM preincubated for 15 mins followed by acetylthiocholine iodide substrate addition measured for 5 mins by Lineweaver-Burk plot analysis (reference value: 1.23 mM).
In series [9] the test system is COc1cc2nc(NC(=O)CN3CCN(CCCN(C)C)CC3)sc2cc1OC. Briefly: Inhibition of electric eel AChE assessed as enzyme Vmax at 0.0576 uM preincubated for 15 mins followed by acetylthiocholine iodide substrate addition measured for 5 mins by Lineweaver-Burk plot analysis (reference value: 0.60 abs/min).
Series [10] deals with COc1cc2nc(NC(=O)CN3CCN(CCN(C)C)CC3)sc2cc1OC. Briefly: Inhibition of electric eel AChE assessed as enzyme Vmax at 0.0462 uM preincubated for 15 mins followed by acetylthiocholine iodide substrate addition measured for 5 mins by Lineweaver-Burk plot analysis (reference value: 0.60 abs/min).
Series [11] has the same test system. Briefly: Inhibition of electric eel AChE assessed as enzyme Km at 0.0462 uM preincubated for 15 mins followed by acetylthiocholine iodide substrate addition measured for 5 mins by Lineweaver-Burk plot analysis (reference value: 1.23 mM).
Series [12] shares this test system. Briefly: Inhibition of electric eel AChE assessed as enzyme Vmax at 0.0231 uM preincubated for 15 mins followed by acetylthiocholine iodide substrate addition measured for 5 mins by Lineweaver-Burk plot analysis (reference value: 0.60 abs/min).

Experimental findings from ChEMBL document CHEMBL3864165, “Design, synthesis, and AChE inhibitory activity of new benzothiazole-piperazines” (Bioorg Med Chem Lett, 2016) are described below.

One may read the Km as the substrate concentration at which the rate is half of its maximum. Regarding “Acetylcholinesterase (Electrophorus electricus) (chain not printed)”, the Michaelis constant (Km) in series [1] was 1280 µM; in [2], 1380 µM; in [3], 1250 µM; in [6], 1270 µM; in series [8], 1150 µM; in series [11] it was 1190 µM. The Vmax in series [4] stood at 0.31 abs/min; in series [5], 0.47 abs/min; in series [7], 0.39 abs/min; in series [9] it was 0.4 abs/min; in series [10], 0.37 abs/min; in series [12] it was 0.46 abs/min.
